34 variants from the RNAGym collection of RNA variant scans (doi:10.1093/nar/gkz1192) can be followed below.

The source gives no read counts; variants with many changes may rest on few reads.

The chains are these.
B1: CPEB3 Ribozyme (parent)
chain: UAACAGGGGGCCACAGCAGAAGCGUUCACGUCGCAGCCCCUGUCAGAUUCUGGUGAAUCUGCGAAUUCUGCUGUAUAUCUC

The data set covers variants of B1. Kind of data set: self-cleavage, relative activity (ratio to wild type); higher = more cleavage; in vitro, sequencing. Summed up:
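For each CPEB3 ribozyme variant, relative activity is its cleaved/total read fraction divided by the unmutated ribozyme's. Barcoded error-prone PCR libraries were transcribed by T7 RNA polymerase (5 hours, 37°C) and held in DNase I for 15 min before an EDTA stop, with cleavage occurring throughout. Template-switching reverse transcription and Illumina sequencing were used to read the RNAs. A 5-read minimum applied, and results are the mean of three batches.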
Consider UAACAGGGGGCCAUAGCAGAAGCGUUCACGUCGCAGCCCCUGUCAGAGUCUGGUGAAUCUGCGAAUUCUGCCGUAUAUCUC [C14U U48G U72C], for which the self-cleavage was determined as 0.44.
Under UAACAGGGGGCCAUAGCAGAAGCGUUCACGUCGCAGCCCCUGUUAGAUUUUGGUGAAUCUGCGAAUUCUGCUGUAUAUCUC [C14U C44U C50U] stands 0.23.
Under UAACAGGGGGCCAUAGCUGAAGCGUUCACUUCGCAGCCCCUGUCAGAUUCUGGUGAAUCUGCGAAUCCUGCUGUAUAUCUC [C14U A18U G30U U67C] stands 0.08.
The same measure for UAACAGGGGGCCAUAUCAGCAGCGUUCACGUCGCAGCCCCUGUCAGAUUCUGGUGAAUCUGCGAGUACUGCUGUAUAUCUC [C14U G16U A20C A65G U67A]: 0.06; for UAACAGGGGGCCACCGCUGUAGCGUUCACGUCGCAGCCCCUGUCUGAUUCUGGUGAAUCUGCGAUUUCUGCCGUAUAUCUC [A15C A18U A20U A45U A65U U72C]: 0.08; for UAACAGGGGGCCAUAGCAGAAGCGUUCACGCCGCAGCCCCUGUCAGACACUGGUGAAUCUGCGUAUUCUGCUGUAUAUCUC [C14U U31C U48C U49A A64U]: 0.12.
As for UAACAGGGGGCCAGAGCAGAAGCGUUCACGUCGCAGCCCCUGUCAGACUCUGGUGAAUCUGCGGUUUCUGCUGUAUAUCUC [C14G U48C A64G A65U], the self-cleavage was determined as 0.29.
UAACAGGGGGCCAUAGCAGAAGCGUUCACGUCGCGGCCCCUGCCAGACUCCGGUGAAUCUGCGAAUUCUGCUGUAUAUCUC [C14U A35G U43C U48C U51C]: the self-cleavage is 0.96.
Regarding UAACAGGGGGCCAUAGCAGAAGCGUUCACGUCGCAGCCCCUGUCAGAUUCAGGUGAAUGUGCGAAUUCUGCUGUAUUUCUC [C14U U51A C59G A77U], the self-cleavage is 0.4.
Under UAACAGGGGGCCACCGCAGUGGCGUUCGCGUCGCAGCCCCUGUCAGAACCUGGUGAAUCUGCGAAUUCUGCCGUAUAUCUC [A15C A20U A21G A28G U48A U49C U72C] stands 0.11; under UAACAGGGGGCCACCGCAGAAGCGUUCACGUCGCAGCCCCUGUCAGAUUCUGGUGGAUCUGCGAGUCCUGCUGAAUAACUC [A15C A56G A65G U67C U74A U78A], 0.05; under UAACAGGGGGCCAUAGCAGAAGCGUUCACGUCGCAGCCCCUGUCAGAUUCUGGUGAAUCUGCGAAUUCUGCUGCAUACCUC [C14U U74C U78C], 1.38.
With UAACAGGGGGCCAUAGCAGAAGCCUUCACGUCGCGGCCCCUGUCAGAUUCUGGUGGAUCUGCGAAUACUGCCGUAAAUCUC [C14U G24C A35G A56G U67A U72C U76A], the self-cleavage amounted to 0.07.
Under UAACAGGGGGCCAUCGCAGGAGCGUUCACGUCGCAGCCCCUGUCAGAUUCAGGUGAAUCUGAGAAUUCUGCUGCAUAUCUC [C14U A15C A20G U51A C62A U74C] stands 0.15; under UAACAGGGGGCCAUAGCAGAAGCGUUCACGUCCCAGCCCCUGACAGAUUCUGGUGAAUCUGCGAAUUCUGCUGUAUAUCUC [C14U G33C U43A], 0.24; under UAACAGGGGGCCAUUGCAGAAGCGUUCACGUCGCAGCCCCUGUCAGAUUCUGGAGAAUCUGCGGAUUCUGCUGUAUAUCUC [C14U A15U U54A A64G], 1.03.
Regarding UAACAGGGGGCCAUAGCAGCAGCGUUCACGUAGCAGCCCCUGUCAGUUUCUGGAGAAUCUGCGAAUUCAGCUGUAUAUCUC [C14U A20C C32A A47U U54A U69A], the self-cleavage worked out at 0.05.
The same measure for UAACAGGGGGCCACCGCAGGAGCGUUCACGUCGCAGCCCCUGUCAGAUUCUGGUGAAUCUGCGAAUUCUGCUGUAUACCUC [A15C A20G U78C]: 0.87.
In the case of UAACAGGGGGCCAUAGCAGAAGCGUUCACGUCGCAGCCCCUGUCAGAUUCUGGUGAAACUGCGAAUUCUGCUGCAUAUCUC [C14U U58A U74C], the self-cleavage came out at 1.04.
Under UAACAGGGGGCCACCGCGGAAGCGUUCACGUCGCGGCCCCUGUCAGACUCUGGUGAAUCUGCAAAUUCUGCUGUAUAUCUC [A15C A18G A35G U48C G63A] stands 0.26; under UAACAGGGGGCCACCACAGAAGCGUUCACGUCGCAGCCCCAGUCAGAUUCUGGUGAAUCUGAGAAUUCUGCUGUAUAUCUC [A15C G16A U41A C62A], 0.19.
The same measure for UAACAGGGGGCCAUAGCGGAAGCGUUCACGUCGCAGCCCCAGUCAGACUCUGGUGAAUCCGCGAAUUCUGCUGUAUACCUC [C14U A18G U41A U48C U60C U78C]: 0.12.
With UAACAGGGGGCCAUAGCAGGAGCGUUCUCGUCGCAGCCCCUGUCAGAUUCUGGUGAAUCUGCGAAUUCUGCUGUAUAUCUC [C14U A20G A28U], the self-cleavage came out at 0.54.
The same measure for UAACAGGGGGCCAUAGCAGAGGCGUUCACGUCGCAGCCCCUGUCAGAUUCUGGUGAGUCUGCGAAUUCUGCUGUAUACCUC [C14U A21G A57G U78C]: 0.45.
Regarding UAACAGGGGGCCAUAGCAGUAGCGUUCACGUCGCAGCCCCUGUCGGAUUCUGGUGAAUCUGCGAAUUCUGCUGUAUAUCUC [C14U A20U A45G], the self-cleavage turned out to be 0.22.
The same measure for UAACAGGGGGCCACCGCAGAGGGGUCCACGUCGCAGCCCCUGUCAGAUUCUGGUGAAUCUGCGAAUUCUGCUGUAUAUCUC [A15C A21G C23G U26C]: 0.11; for UAACAGGGGGCCACCGCAGAAGCGUUCGCGUCGCAGCCCCUGUCAGAUUCCGGUGAAUCUGCGAAUUCUGCUGUAUAUCUC [A15C A28G U51C]: 0.48; for UAACAGGGGGCCACCGCAGAGGCGUUCACGUCGCAGCCCCUGUCAGAUUCUGGUGAAUCCGCGAAUACUGCUGUACAUCUC [A15C A21G U60C U67A U76C]: 0.18.
UAACAGGGGGCCAUAGCAGAAGCGUUCAUGUCGCAGCCCUUGUCAGAUUCUGGUGAAUCUGCGAAUUCUACGGUAUAUCUC [C14U C29U C40U G70A U72G]: the self-cleavage was 0.12.
The same measure for UAACAGGGGGCCACCGCGGAAGCGUUCACGUCGCAGCCCCCGUCAGAUUCUGGUGAAUCUGCGAAUUCUGCUGUAUAUCUC [A15C A18G U41C]: 0.67; for UAACAGGGGGCCAUAGCAGAAGCGUUCGCGUCGCAGCCCCUGUCAGAUUCUGGUGAAUCUGCGAAUUCUGCUGUAUAGCUC [C14U A28G U78G]: 1; for UAACAGGGGGCCAUUGCAGAAGCGUUCGCGUCGCAGCCCCUGUCAGAUUCUGGAGAGUCUGCGAAUUCUGCUGUAUAUCUC [C14U A15U A28G U54A A57G]: 0.54.
The same measure for UAACAGGGGGCCACCGCAGAAGCGUUCACGUCGCAGCUCCUGUCAGGUUCUGGUGAGCCUGCGAAUUCUGCUGUAUAUCUC [A15C C38U A47G A57G U58C]: 0.79; for UAACAGGGGGCCACCGCAGAAGCGUUCAAGUCGCAGCCCCUGUCAGAUUCUGGUGAAUCUGCGAGUUCUGCUGUAUAUCUC [A15C C29A A65G]: 0.13.
